Assay results reported in PubChem BioAssay AID1508623 (National Center for Advancing Translational Sciences (NCATS), 2021).
Among all 48,000 compounds or so, about 450 (0.94%) were called active. Not shown: some 19% with an inconclusive outcome. The call rests on the fitted dose curve; in most records, active means well fitted inhibition curve with a large enough effect; inconclusive means small, poorly fitted or top-dose-only effect; inactive means no such curve, though single readings can be large or run the other way. This is one part of the list.

assay: Primary qHTS for Identification of Small Molecule Inhibitors of Huntingtin Promoter Activity; details: HEK293 HTT promoter firefly luciferase reporter (activity 0% = vehicle and -100% = no light), 24 h; series mostly up to 57.5 µM; activity change, negative = inhibition: at the top concentration; further: nearly all actives have a fitted effect of over 50% in size
In short: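 HEK293 Fluc reporter, 2,500 cells/well, 24 h pre-culture; cpds up to 57.5 uM final, 24 h 37 degrees C; Dual-Glo, 10 min RT; normalized vehicle = 0%, zero RLU = -100%.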

Activity change, negative = inhibition, inactive:
Cc1cccc(OCC(=O)Nc2ccc(OCc3cc(=O)n4cc(C)ccc4n3)cc2)c1 0.59%
Cc1c(Cl)cccc1NC(=O)C(C)n1nc(C)c2c(C)n(-c3ccccc3)nc2c1=O (stereo not drawn) -26.3%
O=C1CC(c2nnc(Cc3ccc(F)cc3)o2)CN1c1ccccc1 (stereo not drawn) -10.8%
Cc1cccc(NC(=O)CSc2cn(CC(=O)N3CCC(C)CC3)c3ccccc23)c1C -5.26%
Fc1ccccc1-n1ncc2c1ncn1nc(COc3ccc(Cl)cc3)nc21 -8.67%
COc1ccccc1CNC(=O)c1cc(S(=O)(=O)N2CCCCCC2)cn1C -17.8%
Cc1cccc(N2CCN(S(=O)(=O)c3nnc(NC(=O)c4ccc(Cl)cc4)s3)CC2)c1 -10.7%
COc1ccc(OC)c(NC(=O)c2ccc3nc(C(C)C)oc3c2)c1 -11%
COc1ccccc1N1CCN(C(=O)c2cc3c(s2)-c2ccccc2OC3)CC1 -32.9%
CCc1cccc(NC(=O)c2cc(S(=O)(=O)N3CCCCCC3)cn2C)c1 -22.4%
Cc1ccccc1CN1CCC(CNC(=O)c2cc3ccc4cccnc4c3[nH]2)CC1 -12.3%
CC(C)(C)C(=O)NC1CC(=O)N(c2ccc3c(c2)OCCO3)C1 (stereo not drawn) -1.5%
CCc1ccccc1N1CC(c2nc3ccccc3n2CCCCOc2ccccc2OC)CC1=O (stereo not drawn) -6.06%
Cc1noc(Cn2c(=O)c3cc4c(cc3n(CC(=O)Nc3ccc(C(C)C)cc3)c2=O)OCO4)n1 -24%
CC(C)NC(=O)Cc1csc2nc(-c3ccccc3)cn12 -18.8%
CNS(=O)(=O)c1ccc(NC(=O)c2nc3nc(C)cc(C(F)F)n3n2)cc1 -8.69%
CCN(c1ccccc1)S(=O)(=O)c1ccc(NC(=O)c2cc(=O)c3c(C)cc(C)cc3o2)cc1 0%
O=C1CCc2cc(S(=O)(=O)NC(C(=O)Nc3ccc(F)cc3)c3ccccc3)ccc2N1 (stereo not drawn) -12.5%
Cc1nc2nc(CNC(=O)c3cccc(F)c3)nn2c(C)c1CCC(=O)Nc1ccc(F)cc1 10.6%
CCOc1ccc(NS(=O)(=O)c2ccc3[nH]cc(C(=O)N4CCCC4)c(=O)c3c2)cc1 10.1%
O=c1ccc2ccccc2o1 -5.5%
O=c1n(Cc2ccccc2)nc2n1-c1ccccc1OC2 25.4%
CC(C)c1cnc2c(c1SCc1ccc([N+](=O)[O-])cc1)c(=O)n(C)c(=O)n2C -0.578%
COc1cc2c(cc1OC)C(COc1ccc(F)cc1)N(C(=O)C(C)C)CC2 (stereo not drawn) -24.1%
C=C1C(=O)OC2C=C(C)CCC=C(C)CCC12 (stereo not drawn) -1.64%
COc1ccc(S(=O)(=O)N(Cc2nc(-c3ccccc3)no2)C2CCCCC2)cc1 -26.9%
Cc1ccccc1C(=O)NCC(c1ccc(N(C)C)cc1)N1CCCC1 (stereo not drawn) 35.3%
Cc1cccc(-c2noc(-c3cccnc3NCc3ccccc3Cl)n2)c1 1.75%
O=S(=O)(NCC(c1ccco1)S(=O)(=O)c1ccccc1)c1cc(F)ccc1F (stereo not drawn) -12.6%
CNC(=O)C1CCC(Cn2c(=O)c3sccc3n(CC(=O)N3CCCCC3C)c2=O)CC1 (stereo not drawn) -7.23%
COc1cc(C2CC(=O)N(c3ccc(C)c(Cl)c3)C3=C2C(=O)OC3)cc(OC)c1OC (stereo not drawn) -8.02%
O=C(CCS(=O)(=O)c1ccc(Br)s1)Nc1c(F)cccc1F -9.97%
CCOC(=O)c1ccc(NC(=O)Nc2cccc(OCc3cc(=O)n4ccc(C)cc4n3)c2)cc1 -2.26%
COc1ccc(NC(=O)CCc2nc3cccnc3n2Cc2cccs2)c(OC)c1 -10.1%
CCCCOc1ccc(NC(=O)CSc2ccc(C(=O)O)cn2)cc1 -2.41%
Cc1cc(N2CCN(c3ccccc3F)CC2)n2cnnc2n1 -33%
O=C(NCc1ccc(F)cc1)c1ccc2c(c1)N(Cc1ccc(F)cc1Cl)C(=O)CS2 -14.3%
CCCSc1ncc(Cl)c(C(=O)Nc2ccc(OC)cc2OC)n1 -10.4%
COc1cccc(CNC(=O)CCn2ccc3cc(S(=O)(=O)N4CCCC4)ccc32)c1 -15.9%
Cc1ccc(CN2C(=O)SC(Nc3ccccc3)C2=O)cc1 (stereo not drawn) -13.3%
COc1ccc(NC(=O)Nc2nnc(SCC(=O)Nc3cccc(C)c3C)s2)cc1 11.1%
CCn1cnc2c(=O)oc3ccc(S(=O)(=O)N4CCN(c5cc(C)ccc5C)CC4)cc3c21 -17.5%
Cc1ccc(C2C=C(c3ccc(Cl)cc3)Nc3nc(NC(=O)CCC(=O)O)nn32)cc1 (stereo not drawn) -1.95%
CCCOc1ccc(C(=O)Nc2cc3nn(-c4ccc(CC)cc4)nc3cc2C)cc1 -3.54%
COc1ccccc1OCCCn1c(-c2ccc(Cl)cc2)nc2ccccc2c1=O -8.5%
CCC(C)Cn1c(COc2ccc(OC)cc2)nc2ccccc21 (stereo not drawn) -15.7%
CCOC(=O)Cc1c(C)nc2c(-c3ccc(OC)c(OC)c3)c(C)nn2c1C -13.7%
Cc1cccc(C(=O)Nc2nnc(S(=O)(=O)N3CCC(C)CC3)s2)c1 -11.3%
CCOC(=O)CC(NC(=O)c1cc2cc(OC)ccc2oc1=O)c1ccc(OC)cc1 (stereo not drawn) -1.46%
O=C(CCC(=O)N1CC2CCCN2c2ccccc21)NCc1ccccc1F (stereo not drawn) -0.641%
Cc1cccc(OCC(=O)OCc2cc(=O)n3nc(C4CC4)sc3n2)c1 -9.98%
O=C(NCc1ccccc1)c1cccc(Nc2nc3ccccc3n3nnnc23)c1 19.1%
O=C(C1CCN(S(=O)(=O)c2cccc3nonc23)CC1)N1CCN(c2ccc(F)cc2)CC1 -26.8%
CCOc1ccc(CNC(=O)CCS(=O)(=O)c2cc3c4c(c2)CCN4C(=O)CC3)cc1 -27.6%
CCOC(=O)c1c(C)oc2ncnc(Nc3ccc(CC)cc3)c12 -16.5%
CC1CCN(C(=O)CN2CCSc3ccc(S(=O)(=O)N(C)C)cc32)CC1 -20%
COc1ccc(/C=C/c2nc(-c3ccccc3O)n(-c3ccccc3)n2)cc1OC -29.4%
CCC(=O)N1CCc2cc(S(=O)(=O)NCCC(=O)NC(C)c3ccccc3)ccc21 (stereo not drawn) -15.1%
CC(=O)c1ccc(NC(=O)C(Cc2ccccc2)NS(=O)(=O)c2ccc3c(c2)CCC(=O)N3)cc1 (stereo not drawn) 4.8%
CCn1c(CN2CCC(C)CC2)nc2cc(NC(=O)c3ccccc3[N+](=O)[O-])ccc21 -15.2%
Cc1ccc(C)c(Cn2c(=O)c3c(nc4n3CCN4c3ccc(F)cc3)n(C)c2=O)c1 -7.29%
CCOC(=O)c1c(C)[nH]c(CCC(=O)NCCCN2CCN(c3cccc(Cl)c3)CC2)c1C -29.4%
CC(=O)NCCNC(=O)CCCc1nnc2n(CCC(C)C)c(=O)c3sccc3n12 -9.15%
CCc1ccc(OC(=O)CSc2nnc(-c3ccc4c(c3)OCO4)o2)cc1 -7.05%
Cc1ccc(NC(=O)C(=O)NCC(c2cccnc2)N2CCOCC2)cc1C (stereo not drawn) -22.2%
CCOCCCNC(=O)C(c1ccc(OC)cc1)N(Cc1cccs1)C(=O)c1ccc(NC(C)=O)cc1 (stereo not drawn) -1.09%
Cc1ccc(C(=O)c2oc3ccccc3c2NC(=O)c2cc(=O)c3ccccc3o2)cc1 -11%
COc1cccc(-c2cn3c(n2)sc2cc(C(=O)NCc4cccs4)ccc23)c1 30%
COc1ccc2oc(=O)cc(CN3CCN(C(=O)c4ccccc4F)CC3)c2c1 -10.6%
CC(=O)Nc1ccc(NC(=O)CC2Sc3ccccc3NC2=O)cc1 (stereo not drawn) 1.21%
O=C(CCN1CCC(c2ccccc2)C1)c1ccc2c(c1)OCCO2 (stereo not drawn) 25.1%
CCOc1ccc(CNC(=O)C2CCN(S(=O)(=O)c3c(C)noc3/C=C/c3ccc(C)cc3)CC2)cc1OC -15.2%
CCOc1ccc(CNS(=O)(=O)c2ccc3[nH]c4c(c3c2)CCCC4)cc1OC -28%
Cc1c(CNCc2ccc(Cl)cc2)c(C(=O)O)c(C)n1Cc1ccc(F)cc1 -28.3%
COc1ccc(NC(=O)CSc2nc3nc(C)cc(C)n3n2)cc1 -6.21%
COc1cccc(CNC(=O)CCc2nnc3n(C)c(=O)c4sccc4n23)c1 7.7%
CCCN(CCC)CCCNC(=O)C1CCC(CNS(=O)(=O)c2ccc(NC(C)=O)cc2)CC1 (stereo not drawn) -2.37%
COc1ccc(NC(=O)Cn2c(CCC(=O)O)ccc2-c2ccccc2)cc1Cl -13.3%
CCOC(=O)c1c(C)oc2nc(C)nc(Nc3cccc(OC)c3)c12 3.59%
Nc1ccc(S(=O)(=O)Nc2ccccn2)cc1
CCOc1ccc(CC(=O)Nc2c(C(=O)c3ccc(F)cc3)oc3ccccc23)cc1OCC -7.48%
COC(=O)c1ccc(C2Nc3c(C)cc(C)cc3C3C=CCC32)cc1 (stereo not drawn) -6.38%
COc1ccc(C(CNC(=O)COc2ccc(C)c(C)c2)N2CCCCC2)cc1 (stereo not drawn) -18.5%
Cc1cc(C)c(NC(=O)Cn2nc3c(cc2=O)CCCC3)c(C)c1 2.25%
COCCCN1C(=O)N(c2ccccc2)C(=O)C1CC(=O)Nc1ccc(F)cc1 (stereo not drawn) -20.5%
COc1cc(OC)cc(C(=O)Nc2cc3nn(-c4ccccc4)nc3cc2Cl)c1 24%
CCOc1ccc(-c2oc3ccccc3c(=O)c2O)cc1OCC 24.7%
O=C(Nc1ccc(S(=O)(=O)Nc2ccccc2)cc1)N1CCCC1 -18.4%
COc1ccccc1NC(=O)C1=C(C)Nc2c(C(=O)Nc3ccc(F)cc3)cnn2C1c1ccc(Cl)cc1 (stereo not drawn) -27.5%
COc1ccc(-c2noc(-c3ccc(NCc4ccc(C)cc4)c([N+](=O)[O-])c3)n2)cc1OC -3.02%
Cn1c(=O)c2c(nc(SCC(=O)Nc3ccc(OC(F)(F)F)cc3)n2Cc2cccc(C(F)(F)F)c2)n(C)c1=O -24.4%
Cc1ccc(S(=O)(=O)Nc2cc3c(cc2C)n(C)c(=O)c(=O)n3C)cc1 -10%
O=S1(=O)c2cccc3cccc(c23)N1CCCN1CCN(c2ccc(F)cc2)CC1 -12.8%
O=C(Cn1c(=O)n(-c2ccc(F)cc2)c(=O)c2sc3ccccc3c21)N1CCCC1 -8.22%
CCOC(=O)c1sc2ccccc2c1S(=O)(=O)Nc1c(C)cccc1C -12.6%
Cc1ccc(CSC2=Nc3ccccc3C3=NC(CCC(=O)N4CCN(c5ccccc5)CC4)C(=O)N23)cc1 (stereo not drawn) 10.2%
CCOC(=O)c1c(N)n(-c2ccc(C)c(C)c2)c2nc3ccccc3nc12 1.06%
Cc1ccccc1NC(=O)CSc1nc(-c2ccc(F)cc2)c2cccc(C)c2n1 20.2%
